The list shows a part of the results.
How the values were obtained:
Test in all cases: glycan array binding signal (z-score within array); higher = stronger binding
Settings in all cases: glycan notation: IUPAC condensed, linker removed
[1] = target: Fuc(a1-2)[GalNAc(a1-3)]Gal(b1-4)GlcNAc(b1-3)Gal(b1-4)GlcNAc
Procedure, shortened: (§1)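 Glycan array data came from 3228 arrays in the Consortium for Functional Glycomics database, and only arrays with an available protein sequence were kept. Glycan names were put into IUPAC-condensed notation, and columns mapping to the same glycan were averaged. The binding signal is a within-array Z-score, averaged across arrays of one protein sequence run at different concentrations or buffers and across linkers. A negative Z-score can be read as non-binding.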

[2] = target: Fuc(a1-2)[GalNAc(a1-3)]Gal(b1-4)GlcNAc(b1-3)Gal(b1-4)GlcNAc(b1-3)Gal(b1-4)GlcNAc
Procedure, shortened: as §1

[3] = target: Fuc(a1-2)[GalNAc(a1-3)]Gal(b1-4)GlcNAc(b1-3)GalNAc
Procedure, shortened: as §1

[4] = target: Fuc(a1-2)[GalNAc(a1-3)]Gal(b1-4)[Fuc(a1-3)]GlcNAc
Procedure, shortened: as §1

[5] = target: Fuc(a1-2)[GalNAc(a1-3)]Gal(b1-4)[Fuc(a1-3)]GlcNAc(b1-3)GalNAc
Procedure, shortened: as §1

[6] = target: Fuc(a1-2)[GalNAc(a1-4)]Gal(b1-4)GlcNAc
Procedure, shortened: as §1

[7] = target: Fuc(a1-2)[GalNAc(b1-3)]Gal
Procedure, shortened: as §1

Fuc(a1-3)GlcNAc = target: Fuc(a1-3)GlcNAc
Procedure, shortened: as §1

[8] = target: Fuc(a1-3)[Gal(b1-4)]Glc6S
Procedure, shortened: as §1

[9] = target: Fuc(a1-3)[Gal(b1-4)]GlcNAc
Procedure, shortened: as §1

[10] = target: Fuc(a1-3)[Gal(b1-4)]GlcNAc(b1-2)Man
Procedure, shortened: as §1

[11] = target: Fuc(a1-3)[Gal(b1-4)]GlcNAc(b1-2)Man(a1-3)[Fuc(a1-3)[Gal(b1-4)]GlcNAc(b1-2)Man(a1-6)]Man(b1-4)GlcNAc(b1-4)GlcNAc
Procedure, shortened: as §1

[12] = target: Fuc(a1-3)[Gal(b1-4)]GlcNAc(b1-2)Man(a1-3)[Fuc(a1-3)[Gal(b1-4)]GlcNAc(b1-2)Man(a1-6)]Man(b1-4)GlcNAc(b1-4)[Fuc(a1-6)]GlcNAc
Procedure, shortened: as §1

[13] = target: Fuc(a1-3)[Gal(b1-4)]GlcNAc(b1-3)Gal(b1-3)[Fuc(a1-4)]GlcNAc
Procedure, shortened: as §1

[14] = target: Fuc(a1-3)[Gal(b1-4)]GlcNAc(b1-3)GalNAc
Procedure, shortened: as §1

[15] = target: Fuc(a1-3)[Gal(b1-4)]GlcNAc(b1-4)Gal(b1-4)[Fuc(a1-3)]GlcNAc
Procedure, shortened: as §1

[16] = target: Fuc(a1-3)[Gal(b1-4)]GlcNAc(b1-4)Gal(b1-4)[Fuc(a1-3)]GlcNAc(b1-4)Gal(b1-4)[Fuc(a1-3)]GlcNAc
Procedure, shortened: as §1

[17] = target: Fuc(a1-3)[Gal(b1-4)]GlcNAc(b1-6)GalNAc
Procedure, shortened: as §1

[18] = target: Fuc(a1-3)[Gal(b1-4)]GlcNAc(b1-6)[Gal(b1-3)GlcNAc(b1-3)]Gal(b1-4)Glc
Procedure, shortened: as §1

[19] = target: Fuc(a1-3)[Gal(b1-4)]GlcNAc(b1-6)[Neu5Ac(a2-3)Gal(b1-3)]GalNAc
Procedure, shortened: as §1

[20] = target: Fuc(a1-3)[Gal(b1-4)]GlcNAc6S
Procedure, shortened: as §1

[21] = target: Fuc(a1-3)[Gal3S(b1-4)]GlcNAc
Procedure, shortened: as §1

[22] = target: Fuc(a1-3)[Gal3S(b1-4)]GlcNAc6S
Procedure, shortened: as §1

[23] = target: Fuc(a1-3)[GalNAc(b1-4)]GlcNAc
Procedure, shortened: as §1

[24] = target: Fuc(a1-3)[GalNAc(b1-4)]GlcNAc6S
Procedure, shortened: as §1

[25] = target: Fuc(a1-3)[GalNAc3S(b1-4)]GlcNAc
Procedure, shortened: as §1

Fuc(a1-4)GlcNAc = target: Fuc(a1-4)GlcNAc
Procedure, shortened: as §1

Fuc(b1-3)GlcNAc = target: Fuc(b1-3)GlcNAc
Procedure, shortened: as §1

Gal(a1-2)Gal = target: Gal(a1-2)Gal
Procedure, shortened: as §1

Gal(a1-3)Gal = target: Gal(a1-3)Gal
Procedure, shortened: as §1

Gal(a1-3)Gal(b1-3)GlcNAc = target: Gal(a1-3)Gal(b1-3)GlcNAc
Procedure, shortened: as §1

[26] = target: Gal(a1-3)Gal(b1-3)GlcNAc(b1-2)Man(a1-3)[Gal(a1-3)Gal(b1-3)GlcNAc(b1-2)Man(a1-6)]Man(b1-4)GlcNAc(b1-4)GlcNAc
Procedure, shortened: as §1

[27] = target: Gal(a1-3)Gal(b1-3)GlcNAc(b1-3)GalNAc
Procedure, shortened: as §1

[28] = target: Gal(a1-3)Gal(b1-3)GlcNAc(b1-6)GalNAc
Procedure, shortened: as §1

[29] = target: Gal(a1-3)Gal(b1-3)[Fuc(a1-4)]GlcNAc(b1-2)Man(a1-3)[Gal(a1-3)Gal(b1-3)[Fuc(a1-4)]GlcNAc(b1-2)Man(a1-6)]Man(b1-4)GlcNAc(b1-4)GlcNAc
Procedure, shortened: as §1

Gal(a1-3)Gal(b1-4)Glc = target: Gal(a1-3)Gal(b1-4)Glc
Procedure, shortened: as §1

Gal(a1-3)Gal(b1-4)GlcNAc = target: Gal(a1-3)Gal(b1-4)GlcNAc
Procedure, shortened: as §1

[30] = target: Gal(a1-3)Gal(b1-4)GlcNAc(b1-3)GalNAc
Procedure, shortened: as §1

[31] = target: Gal(a1-3)Gal(b1-4)GlcNAc(b1-6)GalNAc
Procedure, shortened: as §1

[32] = target: Gal(a1-3)Gal(b1-4)[Fuc(a1-3)]GlcNAc
Procedure, shortened: as §1

[33] = target: Gal(a1-3)Gal(b1-4)[Fuc(a1-3)]GlcNAc(b1-2)Man(a1-3)[Gal(a1-3)Gal(b1-4)[Fuc(a1-3)]GlcNAc(b1-2)Man(a1-6)]Man(b1-4)GlcNAc(b1-4)GlcNAc
Procedure, shortened: as §1

Gal(a1-3)GalNAc = target: Gal(a1-3)GalNAc
Procedure, shortened: as §1

[34] = target: Gal(a1-3)[Gal(a1-4)]Gal(b1-4)GlcNAc
Procedure, shortened: as §1

[35] = target: Gal(a1-4)Gal(b1-3)GlcNAc(b1-2)Man(a1-3)[Gal(a1-4)Gal(b1-3)GlcNAc(b1-2)Man(a1-6)]Man(b1-4)GlcNAc(b1-4)GlcNAc
Procedure, shortened: as §1

Gal(a1-4)Gal(b1-4)Glc = target: Gal(a1-4)Gal(b1-4)Glc
Procedure, shortened: as §1

Gal(a1-4)Gal(b1-4)GlcNAc = target: Gal(a1-4)Gal(b1-4)GlcNAc
Procedure, shortened: as §1

[36] = target: Gal(a1-4)Gal(b1-4)GlcNAc(b1-2)Man(a1-3)[Gal(a1-4)Gal(b1-4)GlcNAc(b1-2)Man(a1-6)]Man(b1-4)GlcNAc(b1-4)GlcNAc
Procedure, shortened: as §1

[37] = target: Gal(a1-4)Gal(b1-4)GlcNAc(b1-3)Gal(b1-4)Glc
Procedure, shortened: as §1

Gal(a1-4)GlcNAc = target: Gal(a1-4)GlcNAc
Procedure, shortened: as §1

Gal(a1-6)Glc = target: Gal(a1-6)Glc
Procedure, shortened: as §1

Gal(b1-2)Gal = target: Gal(b1-2)Gal
Procedure, shortened: as §1

Gal(b1-3)Gal = target: Gal(b1-3)Gal
Procedure, shortened: as §1

Gal(b1-3)Gal(b1-4)GlcNAc = target: Gal(b1-3)Gal(b1-4)GlcNAc
Procedure, shortened: as §1

[38] = target: Gal(b1-3)Gal(b1-4)GlcNAc(b1-2)Man(a1-3)[Gal(b1-3)Gal(b1-4)GlcNAc(b1-2)Man(a1-6)]Man(b1-4)GlcNAc(b1-4)GlcNAc
Procedure, shortened: as §1

Gal(b1-3)GalNAc = target: Gal(b1-3)GalNAc
Procedure, shortened: as §1

[39] = target: Gal(b1-3)GalNAc(a1-3)[Fuc(a1-2)]Gal(b1-4)Glc
Procedure, shortened: as §1

[40] = target: Gal(b1-3)GalNAc(a1-3)[Fuc(a1-2)]Gal(b1-4)GlcNAc
Procedure, shortened: as §1

[41] = target: Gal(b1-3)GalNAc(b1-3)Gal(a1-4)Gal(b1-4)Glc
Procedure, shortened: as §1

[42] = target: Gal(b1-3)GalNAc(b1-4)Gal(b1-4)Glc
Procedure, shortened: as §1

[43] = target: Gal(b1-3)GalNAc(b1-4)[Neu5Ac(a2-3)]Gal(b1-4)Glc
Procedure, shortened: as §1

Gal(b1-3)GlcNAc = target: Gal(b1-3)GlcNAc
Procedure, shortened: as §1

[44] = target: Gal(b1-3)GlcNAc(a1-3)Gal(b1-4)GlcNAc
Procedure, shortened: as §1

[45] = target: Gal(b1-3)GlcNAc(a1-6)Gal(b1-4)GlcNAc
Procedure, shortened: as §1

[46] = target: Gal(b1-3)GlcNAc(b1-2)Man(a1-3)[Gal(b1-3)GlcNAc(b1-2)Man(a1-6)]Man(b1-4)GlcNAc(b1-4)GlcNAc
Procedure, shortened: as §1

[47] = target: Gal(b1-3)GlcNAc(b1-2)Man(a1-3)[Gal(b1-3)GlcNAc(b1-2)Man(a1-6)]Man(b1-4)GlcNAc(b1-4)[Fuc(a1-6)]GlcNAc
Procedure, shortened: as §1

[48] = target: Gal(b1-3)GlcNAc(b1-2)Man(a1-3)[GlcNAc(b1-4)][Gal(b1-3)GlcNAc(b1-2)Man(a1-6)]Man(b1-4)GlcNAc(b1-4)GlcNAc
Procedure, shortened: as §1

[49] = target: Gal(b1-3)GlcNAc(b1-2)[Gal(b1-3)GlcNAc(b1-6)]Man(a1-6)[Gal(b1-3)GlcNAc(b1-2)Man(a1-3)]Man(b1-4)GlcNAc(b1-4)GlcNAc
Procedure, shortened: as §1

[50] = target: Gal(b1-3)GlcNAc(b1-3)Gal(b1-3)GlcNAc
Procedure, shortened: as §1

[51] = target: Gal(b1-3)GlcNAc(b1-3)Gal(b1-4)Glc
Procedure, shortened: as §1

[52] = target: Gal(b1-3)GlcNAc(b1-3)Gal(b1-4)GlcNAc
Procedure, shortened: as §1

[53] = target: Gal(b1-3)GlcNAc(b1-3)Gal(b1-4)GlcNAc(b1-6)[Gal(b1-3)GlcNAc(b1-3)]Gal(b1-4)Glc
Procedure, shortened: as §1

[54] = target: Gal(b1-3)GlcNAc(b1-3)Gal(b1-4)[Fuc(a1-3)]GlcNAc(b1-6)[Gal(b1-3)GlcNAc(b1-3)]Gal(b1-4)Glc
Procedure, shortened: as §1

[55] = target: Gal(b1-3)GlcNAc(b1-3)GalNAc
Procedure, shortened: as §1

[56] = target: Gal(b1-3)GlcNAc(b1-6)Gal(b1-4)GlcNAc
Procedure, shortened: as §1

[57] = target: Gal(b1-3)GlcNAc(b1-6)GalNAc
Procedure, shortened: as §1

Measured: glycan array binding signal (z-score)

B1: SalT (Orysata sativa) (protein)
chain: MTLVKIGLWGGNGGSAQDISVPPKKLLGVTIYSSDAIRSIAFNYIGVDGQEYAIGPWGGGEGTSTEIKLGSSEHIKEISGTHGPVYDLADIVTYLKIVTSANNTYEAGVPNGKEFSIPLQDSGHVVGFFGRSGTLIDAIGIYVHPILEQKLISEEDLNSAVDHHHHHH
-0.306: Fuc(a1-3)GlcNAc | [15] | [19] | [23] | [43] | [51]
-0.296: [12]
1.88: [36]
-0.303: [5] | [8] | [22]
-0.311: [28] | Gal(a1-3)Gal(b1-4)GlcNAc
-0.301: [14] | [34]
-0.291: [10]
1.34: [11]
-0.309: [13] | [21] | Gal(a1-3)Gal | Gal(a1-3)Gal(b1-4)Glc | [30] | Gal(a1-4)GlcNAc | [52] | [53] | [56]
0.155: [33]
3.71: [38]
3.69: [46]
2.28: [49]
-0.31: [7] | [18] | [39] | [55]
1.96: [47]
-0.307: [1] | [2] | [20] | [27] | Gal(a1-6)Glc | Gal(b1-2)Gal | [41] | [42] | [45] | [57]
-0.305: [3] | [24] | Gal(a1-3)Gal(b1-3)GlcNAc | Gal(b1-3)Gal | [40]
0.063: [48]
0.535: [29]
3.59: [35]
-0.312: Fuc(b1-3)GlcNAc | [50]
-0.302: [17] | [31] | [32] | [54]
-0.3: [37]
0.177: [26]
-0.308: all other assays above

Reference: the supplement of paper PMC8728848
